{
  "source": "PubChem BioAssay AID1030",
  "about": "(National Center for Advancing Translational Sciences (NCATS), 2008)",
  "note": "The campaign covered roughly 220,000 compounds. About 16,000 (7.3%) were called active. The shares of active, inactive and inconclusive entries below differ from those in the screen. Calls come from the whole dose curve; as a rule, active = well fitted inhibition curve with a large enough effect (not every such curve was filed as active); inconclusive = small, poorly fitted or top-dose-only effect, or another doubt; inactive = no such curve, though single readings can be large or run the other way. No potency is given beside an inconclusive call; the fits are too rough. Potency is the fitted concentration of half-maximal effect; tags give direction and shape of the fitted curve.",
  "data": [
    {"target": "Aldehyde dehydrogenase 1A1 (Homo sapiens) (UniProt P00352)", "sequence (P00352 whole entry, looked up)": "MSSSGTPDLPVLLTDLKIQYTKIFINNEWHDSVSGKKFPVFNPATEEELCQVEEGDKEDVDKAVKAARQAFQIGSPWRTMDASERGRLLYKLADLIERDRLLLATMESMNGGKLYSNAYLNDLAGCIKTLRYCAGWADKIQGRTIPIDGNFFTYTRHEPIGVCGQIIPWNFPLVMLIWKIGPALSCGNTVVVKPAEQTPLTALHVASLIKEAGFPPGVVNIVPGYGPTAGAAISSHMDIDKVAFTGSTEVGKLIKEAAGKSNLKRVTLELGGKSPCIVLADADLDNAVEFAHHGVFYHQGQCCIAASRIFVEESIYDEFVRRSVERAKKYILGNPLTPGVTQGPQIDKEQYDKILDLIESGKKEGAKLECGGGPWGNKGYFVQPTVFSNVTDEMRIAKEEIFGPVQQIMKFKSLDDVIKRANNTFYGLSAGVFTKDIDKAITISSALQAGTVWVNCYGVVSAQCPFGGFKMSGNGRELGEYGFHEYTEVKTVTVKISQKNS", "test": "qHTS Assay for Inhibitors of Aldehyde Dehydrogenase 1 (ALDH1A1)", "conditions": "Purified ALDH1A1, NADH fluorescence, propionaldehyde substrate; series mostly up to 75.3 µM", "values": [
      {"smiles": "CCCc1c(O)c2ccccc2n(-c2ccccc2)c1=O", "Potency": "inconclusive [inhibitor, single point]"},
      {"smiles": "CC(=O)Cc1nsc(NC(=O)c2oc(-c3ccccc3Cl)cc2C)n1", "Potency": "inconclusive [inhibitor, single point]"},
      {"smiles": "CCOC(=O)N=S(=O)(Oc1ccc([N+](=O)[O-])cc1)c1ccc(Cl)cc1", "note": "(stereo not given)", "Potency": "inconclusive [inhibitor, single point]"},
      {"smiles": "Cc1ccccc1C(=O)NC(=S)Nc1sc2c(c1C#N)CCC(C)C2", "note": "(stereo not given)", "Potency": "active: 10 µM"},
      {"smiles": "COc1ccccc1N1CCN(C(=O)/C=C/c2cccs2)CC1", "Potency": "inconclusive [inhibitor, single point]"},
      {"smiles": "CC1=CN2CC(O)CN=C2C=C1", "note": "(stereo not given)", "Potency": "inconclusive [inhibitor, partial curve]"},
      {"smiles": "NCC1CCC(N)C(O[C@@H]2C(O)[C@H](O[C@H]3OC(CO)C(O)C(N)C3O)[C@@H](N)C[C@H]2N)O1", "note": "(stereo not given in full)", "Potency": "inactive"},
      {"smiles": "CN(Cc1ccccc1)C(=O)c1c[nH]c2ccc(S(=O)(=O)N3CCOCC3)cc2c1=O", "Potency": "inconclusive [inhibitor, single point]"},
      {"smiles": "COC(=O)c1ccccc1S(=O)(=O)N(CCCN1CCOCC1)Cc1cccs1", "Potency": "inconclusive [inhibitor, single point]"},
      {"smiles": "CCOC(=O)c1cnc2c(C)cccc2c1NCc1ccco1", "Potency": "inconclusive [inhibitor, single point]"},
      {"smiles": "Cc1c(NC(=S)N/N=C/C=C/c2ccccc2)c(=O)n(-c2ccccc2)n1C", "Potency": "inactive"},
      {"smiles": "CCc1ccc(NC(=O)C(=O)NNC(=O)COc2cccc(OC)c2)cc1", "Potency": "inactive"},
      {"smiles": "CCOC(=O)c1ccccc1NC(=O)CC1Nc2ccccc2NC1=O", "note": "(stereo not given)", "Potency": "inconclusive [inhibitor, partial curve]"},
      {"smiles": "O=C(OC(C(=O)NCc1ccc2c(c1)OCO2)c1ccccc1F)c1ccco1", "note": "(stereo not given)", "Potency": "active: 1.58 µM"},
      {"smiles": "CC(CCc1ccco1)NC(=O)Cn1nc(Cc2ccncc2)c2ccccc2c1=O", "note": "(stereo not given)", "Potency": "inconclusive [inhibitor, single point]"},
      {"smiles": "COc1ccc(S(=O)(=O)N2CCN(Cc3ccc(Cl)cc3)CC2)cc1", "Potency": "inconclusive [inhibitor, single point]"},
      {"smiles": "Cc1ccc(-c2nnn(CCC(=O)Nc3ccc4c(c3)OCO4)n2)cc1", "Potency": "inconclusive [inhibitor, full curve]"},
      {"smiles": "COc1ccc(/C=C2\\SC(N3CCc4ccccc4C3)=NC2=O)cc1", "Potency": "inconclusive [inhibitor, single point]"},
      {"smiles": "COc1ccccc1C(=O)Nc1ccc2c3c(cccc13)CC2", "Potency": "inconclusive [inhibitor, single point]"},
      {"smiles": "COC(=O)c1cc(-c2ccc3c(c2)OCO3)nc2ccccc12", "Potency": "inconclusive [inhibitor, single point]"},
      {"smiles": "COc1ccc(NC(=S)/N=C(\\N)Nc2nc(C)c3ccc(C)cc3n2)cc1", "Potency": "inconclusive [inhibitor, partial curve]"},
      {"smiles": "CC(C)Oc1cccc(C(=O)C2CCCN(C(=O)c3csnn3)C2)c1", "note": "(stereo not given)", "Potency": "inconclusive [inhibitor, single point]"},
      {"smiles": "O=C(Nc1ccccc1)c1ccc(C(=O)Nc2ccccc2)nc1", "Potency": "inconclusive [inhibitor, single point]"},
      {"smiles": "Cn1c(=O)[nH]c(=O)c2c1nc(Sc1ccccc1)n2CCc1ccccc1", "Potency": "inactive"},
      {"smiles": "CCOC(=O)c1c(NC(=O)COC(=O)Cn2c(C)nc3ccccc32)sc2c1CCCC2", "Potency": "inconclusive [inhibitor, single point]"},
      {"smiles": "Cc1ccc(OCC2Cn3c(nc4c3c(=O)[nH]c(=O)n4C)O2)cc1", "note": "(stereo not given)", "Potency": "inactive"},
      {"smiles": "CC(=O)N(c1ccccc1)c1nc(C)cc(C)c1C#N", "Potency": "inconclusive [inhibitor, single point]"},
      {"smiles": "NNc1nc2c(F)cc(F)cc2s1", "Potency": "inconclusive [inhibitor, single point]"},
      {"smiles": "O=c1c(-c2ccccc2)nc2cnc(Nc3ccccc3)nc2n1C[C@H]1CCCO1", "Potency": "inconclusive [inhibitor, single point]"},
      {"smiles": "CCCCn1c(SCC(=O)NCCc2ccc(OC)c(OC)c2)nc2c1c(=O)n(C)c(=O)n2C", "Potency": "inactive"},
      {"smiles": "CCc1sc(C(=O)Nc2ccsc2C(=O)OC)cc1Br", "Potency": "inconclusive [inhibitor, single point]"},
      {"smiles": "COc1ccccc1CNc1nc(-c2cc(C)n(C)c2C)cs1", "Potency": "inconclusive [inhibitor, partial curve]"},
      {"smiles": "COc1ccccc1N1Cc2ccccc2C1", "Potency": "active: 8.91 µM"},
      {"smiles": "CCC1(CC)Cc2ccccc2-c2nc(-c3ccccc3)oc(=O)c21", "Potency": "inconclusive [inhibitor, partial curve]"},
      {"smiles": "Cc1cc(C)n2nc(SCCCC(=O)c3ccc(F)cc3)nc2n1", "Potency": "inactive"},
      {"smiles": "CC1CCN(S(=O)(=O)N2CCC(C(=O)NC3CCCC3)CC2)CC1", "Potency": "inactive"},
      {"smiles": "CN(c1ccccc1)S(=O)(=O)c1cccc(NC(=O)CCN2C(=O)C3CCCCC3C2=O)c1", "note": "(stereo not given)", "Potency": "inconclusive [inhibitor, single point]"},
      {"smiles": "COc1ccc(/C(C)=N/Nc2ccc(C(=O)O)cc2)cc1OC", "Potency": "inconclusive [inhibitor, single point]"},
      {"smiles": "COc1ccccc1C(=O)NCCC(=O)N1CC(=O)Nc2ccccc21", "Potency": "inactive"},
      {"smiles": "CCCCc1c(C)nc2ccc(C)cc2c1SCCC(=O)O", "Potency": "inconclusive [inhibitor, single point]"},
      {"smiles": "Cc1ccc([N+](=O)[O-])c(OCCCNCC(C)O)c1", "note": "(stereo not given)", "Potency": "inconclusive [inhibitor, single point]"},
      {"smiles": "O=[N+]([O-])c1nn(-c2ccc3c(c2)OCCO3)n(O)c1=Nc1ccccc1", "Potency": "active: 11.2 µM"},
      {"smiles": "COC(=O)CNC(=O)c1sc2ncn(CC(=O)Nc3ccc(C)c(Cl)c3)c(=O)c2c1C", "Potency": "inactive"},
      {"smiles": "Cc1cc2nc(-c3cccnc3SCC(=O)NCc3ccco3)[nH]c2cc1C", "Potency": "inconclusive [inhibitor, partial curve]"},
      {"smiles": "NC(=O)c1ccc(NC(=O)COC(=O)c2c3c(nc4ccccc24)/C(=C\\c2ccc4c(c2)OCO4)CCC3)cc1", "Potency": "inconclusive [inhibitor, partial curve]"}
    ]}
  ]
}
